# A collection of fitness landscapes (doi:10.1126/science.1257360)
# The list shows a part of the results.
# B1: PhoQ; a variant is named by its letters at X, in order, P23837 (parent)
# chain: MKKLLRLFFPLSLRVRFLLATAAVVLVLSLAYGMVALIGYSVSFDKTTFRLLRGESNLFYTLAKWENNKLHVELPENIDKQSPTMTLIYDENGQLLWAQRDVPWLMKMIQPDWLKSNGFHEIEADVNDTSLLLSGDHSIQQQLQEVREDDDDAEMTHSVAVNVYPATSRMPKLTIVVVDTIPVELKSSYMVWSWFIYVLSANLLLVIPLLWVAAWWSLRPIEALAKEVRELEEHNRELLNPATTRELTSLVRNLNRLLKSERERYDKYRTTLTDLTHSLKTPLXXLQXXLRSLRSEKMSVSDAEPVMLEQISRISQQIGYYLHRASMRGGTLLSRELHPVAPLLDNLTSALNKVYQRKGVNISLDISPEISFVGEQNDFVEVMGNVLDNACKYCLEFVEISARQTDEHLYIVVEDDGPGIPLSKREVIFDRGQRVDTLRPGQGVGLAVAREITEQYEGKIVAGESMLGGARMEVIFGRQHSAPKDE
# Variants of: B1
# Assay: enrichment ratio after two sorts for PhoP signalling (ratio (wild type AVST 3.29)); higher = more functional
# Details: with PhoP (E. coli)
row,Variant,enrichment ratio
1,KAGV,≤ 0.25
2,WEKD,≤ 0.25
3,PMCC,≤ 0.25
4,LEKQ,≤ 0.25
5,DTRN,≤ 0.25
6,MKVY,≤ 0.25
7,TSVH,11.7
8,EDTT,≤ 0.25
9,FESA,≤ 0.25
10,YHAQ,≤ 0.25
11,PLDW,≤ 0.25
12,KEHL,≤ 0.25
13,YRFA,≤ 0.25
14,MYDK,≤ 0.25
15,PPAK,≤ 0.25
16,EHHR,≤ 0.25
17,ITTA,≤ 0.25
18,YREF,≤ 0.25
19,NWPD,≤ 0.25
20,YPAG,≤ 0.25
21,LFAL,≤ 0.25

row,Variant,enrichment ratio
1,WFLP,≤ 0.25
2,TFHE,≤ 0.25
3,PHPW,≤ 0.25
4,FMQD,≤ 0.25
5,NFCR,≤ 0.25
6,FYFK,≤ 0.25
7,FFSR,≤ 0.25
8,HKRM,≤ 0.25
9,YKAK,≤ 0.25
10,RIKK,≤ 0.25
11,PEVN,≤ 0.25
12,TWKW,≤ 0.25
13,GDWL,≤ 0.25
14,IMEW,≤ 0.25
15,IVCD,≤ 0.25
16,FQLS,5.31
17,EMPL,≤ 0.25
18,MSQL,≤ 0.25
19,IGCC,≤ 0.25
20,EEVI,≤ 0.25
21,DAKR,≤ 0.25

row,Variant,enrichment ratio
1,ACRW,≤ 0.25
2,LGGR,≤ 0.25
3,MVWH,1.95
4,CCFL,≤ 0.25
5,GNLA,7.72
6,HWLS,≤ 0.25
7,PKCH,≤ 0.25
8,AWLY,≤ 0.25
9,WFRQ,≤ 0.25
10,SSTT,7.44
11,DHFF,≤ 0.25
12,HTIY,≤ 0.25
13,RFKQ,≤ 0.25
14,YEMR,≤ 0.25
15,PRLV,≤ 0.25
16,GQLW,≤ 0.25
17,KHWV,≤ 0.25
18,VCMI,17.6
19,IRMA,≤ 0.25
20,SSMR,≤ 0.25
21,DELP,≤ 0.25

row,Variant,enrichment ratio
1,GWPC,≤ 0.25
2,SGLT,12.3
3,MWPQ,≤ 0.25
4,LCGH,≤ 0.25
5,IKIA,≤ 0.25
6,KLRS,≤ 0.25
7,RIFD,≤ 0.25
8,WKAP,≤ 0.25
9,TKGC,3.17
10,PWNA,≤ 0.25
11,VVAQ,≤ 0.25
12,DKQY,≤ 0.25
13,MFSP,≤ 0.25
14,GLVF,0.422
15,PHAR,≤ 0.25
16,AHWM,≤ 0.25
17,MCWT,≤ 0.25
18,ANFR,≤ 0.25
19,IMPL,≤ 0.25
20,SNSP,≤ 0.25
21,VSAG,≤ 0.25
